# Test results as given in the supplement of paper PMC8183993.
# Several values for one entry are separate records, joined by “and”; a condition that tells them apart may be missing. Equal entries are not always repeated. Structures can show the parent of a compound that is named as a salt. ± gives the standard deviation of the averaged measurements. The full ranking holds about 3,100 compounds; the median of “mean cytoplasmic OPP incorporation (global translation) relative to DMSO” is about 100, and the lowest 2% start at about 56. Some of the results follow.
# System: U2OS
# Assay: mean cytoplasmic OPP incorporation (global translation) relative to DMSO (% of DMSO); higher = more protein synthesis
# Settings: 10 µM; 24 h
# Method: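 Primary image-based screen in U2OS cells: compounds at 10 uM for 24 h, then a 1 h o-propargyl-puromycin (OPP) pulse, click labelling, and high-throughput microscopy. Mean cytoplasmic OPP intensity and nuclei count were normalised to DMSO wells within each plate (DMSO = 100) and averaged over triplicate plates.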
row,SMILES,mean cytoplasmic OPP incorporation
1,CC(=O)Oc1cc(C(C)C)c(OCCN(C)C)cc1C [Moxisylyte hydrochoride],96.2
2,O=C1c2c(O)cc(O)cc2OC(c2ccc(O)c(O)c2)C1O (stereo not drawn) [Taxifolin (Dihydroquercetin)],104
3,CN(C)CCCOc1nn(Cc2ccccc2)c2ccccc12 [Benzydamine hydrochloride],102
4,COc1ccc(Nc2nccc(NCCO)n2)cc1 [Cardiogenol C hydrochloride],89.9
5,FC(F)(F)c1ccc(/C=C/c2nc(COc3ccc(CCCCn4ccnn4)cc3)co2)cc1 [Mubritinib (TAK 165)],103
6,FC(F)(F)c1ccc(/C=C/c2nc(COc3ccc(CCCCn4ccnn4)cc3)co2)cc1,108
7,CC(C)NCCN(C(C)C)S(=O)(=O)c1ccc(Cl)cc1Cl,95.9
8,O=C1c2ccccc2C(=O)c2c(NCCc3ccc(O)cc3)ccc(NCCc3ccc(O)cc3)c21,120
9,Nc1ccn(C[C@@H](CO)OCP(=O)(O)O)c(=O)n1 [Cidofovir (Vistide)],101
10,CCCCC(=O)O[C@]1(C(=O)CO)[C@@H](C)C[C@H]2[C@@H]3CCC4=CC(=O)C=C[C@]4(C)[C@@]3(F)[C@@H](O)C[C@@]21C [Betamethasone valerate (Betnovate)],107
11,CC(=O)OCC(=O)[C@@]1(O)CC[C@H]2[C@@H]3CCC4=CC(=O)C=C[C@]4(C)[C@@]3(F)[C@@H](O)C[C@@]21C [Isoflupredone acetate],102
12,CC(=O)OCC(=O)[C@@]1(O)CC[C@H]2[C@@H]3CCC4=CC(=O)CC[C@]4(C)[C@H]3C(=O)C[C@@]21C [Cortisone acetate (Cortone)],101
13,Cn1cc(C(=O)OCC2CCN(CCNS(C)(=O)=O)CC2)c2ccccc21,106
14,C#C[C@]1(O)CC[C@H]2[C@@H]3[C@H](C)CC4=C(CCC(=O)C4)[C@H]3CC[C@@]21C [Tibolone],90.4
15,OC[C@@H](O)[C@@H](O)[C@H](O)[C@@H](O)CO [Sorbitol (Glucitol)],105
16,C[C@@H](CN1CCC(n2c(=O)[nH]c3cc(Cl)ccc32)CC1)NC(=O)c1ccc2ccccc2c1,113
17,O=C(O)COc1cccc(-c2ocnc2-c2nc(-c3ccccc3)c(-c3ccccc3)o2)c1,100
18,COc1cc2nc(N3CCN(C(=O)C4CCCO4)CC3)nc(N)c2cc1OC (stereo not drawn) [Terazosin hydrochloride],96.5 ± 1.3
19,CN1CCN(c2cccc(Nc3nc4c(-c5ccc(S(C)(=O)=O)cc5)cccn4n3)c2)CC1,87.2 ± 3.4
20,Oc1ccc(O)cc1 [Hydroquinone],97
21,CNC(=O)c1nn(C)c2c1C(C)(C)Cc1cnc(Nc3ccc(N4CCN(C)CC4)cc3)nc1-2,89.3 and 44.9
22,CC(C)(O)CC[C@@H](O)[C@](C)(O)[C@H]1CC[C@@]2(O)C3=CC(=O)[C@@H]4C[C@@H](O)[C@@H](O)C[C@]4(C)[C@H]3CC[C@]12C [20-Hydroxyecdysone],106
23,Cc1ccc(/C=N/NC(=O)c2ccccc2Oc2ccccc2)o1,97.8 and 95.7
24,Nc1ccc(S(=O)(=O)Nc2ccc(Cl)nn2)cc1 [Sulfachloropyridazine],116

row,SMILES,mean cytoplasmic OPP incorporation
1,"CCCn1c(=O)c2[nH]c(-c3ccccc3)nc2n(CCC)c1=O [1,3-Dipropyl-8-phenylxanthine]",99.1
2,Cc1cnc(Nc2ccc(N3CCN(C)CC3)cc2)nc1Nc1cccc(S(=O)(=O)NC(C)(C)C)c1,64.2
3,O=C1NC(=O)/C(=C/c2ccc(-c3ccc(F)cc3O)o2)S1,95.3
4,CC(C)CCN1c2nc(Nc3cc(F)c(O)c(F)c3)ncc2N(C)C(=O)C1C (stereo not drawn),100 ± 1.4
5,CC(=O)OC/C=C(C)/C=C/C=C(C)/C=C/C1=C(C)CCCC1(C)C [Retinyl acetate],105
6,Clc1ccc2c(c1)N=C(N1CCNCC1)c1ccccc1N2 [N-Desmethylclozapine],101
7,NS(=O)(=O)c1cc2c(cc1Cl)N=C(CSCc1ccccc1)NS2(=O)=O [Benzthiazide],102
8,O=C1C(CC[S+]([O-])c2ccccc2)C(=O)N(c2ccccc2)N1c1ccccc1 (stereo not drawn) [Sulfinpyrazone],90.3
9,CC1(CN2CCC(n3c(=O)[nH]c4ccccc43)CC2)OCc2ccccc2-n2cccc21 (stereo not drawn),97.3
10,NC(=O)c1noc([C@H](CCCC2CCCCC2)CC(=O)NO)n1,114
11,COc1ccc(CCN(C)CCc2ccc(OC)c(OC)c2)cc1OC,105
12,COc1ccc(CCN(C)CCc2ccc(OC)c(OC)c2)cc1OC [YS-035 hydrochloride],99.3
13,CC(=O)O[C@]1(C(C)=O)CC[C@H]2[C@@H]3C=C(C)C4=CC(=O)CC[C@@H]4[C@H]3CC[C@@]21C [Nomegestrol acetate],113
14,CC[C@@]1(O)C(=O)OCc2c1cc1n(c2=O)Cc2cc3cc(O)ccc3nc2-1 [10-Hydroxycamptothecin],86.6
15,CC(C)Oc1cccc(-n2c(CCc3c[nH]c4ccc(Br)cc34)nc3ccccc3c2=O)c1,106
16,COc1ccc(-c2nc(C(=O)N3CCN(C)CC3)sc2-c2ccc(OC)cc2)cc1,105
17,C[C@@H]1CC(=O)NN=C1c1ccc(NN=C(C#N)C#N)cc1 [Levosimendan],101
18,Cc1nn(C)c2nc(NNC(=O)Nc3cc(Cl)nc(Cl)c3)cc(C(C)C)c12,110
19,C[C@@H](c1ncncc1F)[C@](O)(Cn1cncn1)c1ccc(F)cc1F [Voriconazole],104
20,Cc1c(NC(=O)c2ccc(C(C)(C)C)cc2)cccc1-c1cn(C)c(=O)c(Nc2ccc(C(=O)N3CCOCC3)cc2)n1,110
21,O=C(O)Cc1ccccc1Nc1c(Cl)cccc1Cl [Diclofenac Diethylamine],101
22,O=C(O)Cc1ccccc1Nc1c(Cl)cccc1Cl [Diclofenac sodium],107
23,CN1CCN(CCCN2c3ccccc3Sc3ccc(S(=O)(=O)N(C)C)cc32)CC1 [Thioproperazine dimesylate],108
24,CN[C@@H](C)[C@H]1[C@H](O)C[C@@]2(C)[C@@H]3CC[C@H]4C(C)(C)[C@@H](NC)CC[C@@]45C[C@@]35CC[C@]12C [Cyclovirobuxin D (Bebuxine)],95.1
